# Data reported in PubChem BioAssay AID1460 (National Center for Advancing Translational Sciences (NCATS), 2008).
# Several values for one entry are separate records, joined by “and”; a condition that tells them apart may be missing. Equal entries are not always repeated. Out of some 270,000 compounds screened, about 5,800 (2.1%) were called active. This list was built around the results that the source calls inconclusive (neither active nor inactive); the mix of calls is not that of the screen. Calls follow the shape of the dose curve; as a rule, active = well fitted inhibition curve with a large enough effect; inconclusive = small, poorly fitted or top-dose-only effect; inactive = flat fitted curve, though single readings scatter. Where the call is inconclusive, the potency comes from a doubtful curve fit.
# Target: Microtubule-associated protein tau (Homo sapiens) (UniProt P10636)
# Assay: qHTS for Inhibitors of Tau Fibril Formation, Thioflavin T Binding; also: nearly all actives have a fitted effect of over 55% in size
# Settings: recombinant tau K18 P301L (four-repeat tau fragment), heparin-induced fibrillization, ThT fluorescence; series mostly up to 57.4 µM
# How it was run: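 K18 P301L tau (15 uM + 0.24 uM Alexa 594-tagged), heparin 20 uM, NaOAc pH 7, 6 h 37 C; ThT 30 uM, 1 h RT, ex 450/em 510 nm.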
# Potency is read from the fitted curve at half-maximal effect; tags tell the direction and shape of the fitted curve.
# UniProt P10636, sequence (P10636 whole entry, looked up): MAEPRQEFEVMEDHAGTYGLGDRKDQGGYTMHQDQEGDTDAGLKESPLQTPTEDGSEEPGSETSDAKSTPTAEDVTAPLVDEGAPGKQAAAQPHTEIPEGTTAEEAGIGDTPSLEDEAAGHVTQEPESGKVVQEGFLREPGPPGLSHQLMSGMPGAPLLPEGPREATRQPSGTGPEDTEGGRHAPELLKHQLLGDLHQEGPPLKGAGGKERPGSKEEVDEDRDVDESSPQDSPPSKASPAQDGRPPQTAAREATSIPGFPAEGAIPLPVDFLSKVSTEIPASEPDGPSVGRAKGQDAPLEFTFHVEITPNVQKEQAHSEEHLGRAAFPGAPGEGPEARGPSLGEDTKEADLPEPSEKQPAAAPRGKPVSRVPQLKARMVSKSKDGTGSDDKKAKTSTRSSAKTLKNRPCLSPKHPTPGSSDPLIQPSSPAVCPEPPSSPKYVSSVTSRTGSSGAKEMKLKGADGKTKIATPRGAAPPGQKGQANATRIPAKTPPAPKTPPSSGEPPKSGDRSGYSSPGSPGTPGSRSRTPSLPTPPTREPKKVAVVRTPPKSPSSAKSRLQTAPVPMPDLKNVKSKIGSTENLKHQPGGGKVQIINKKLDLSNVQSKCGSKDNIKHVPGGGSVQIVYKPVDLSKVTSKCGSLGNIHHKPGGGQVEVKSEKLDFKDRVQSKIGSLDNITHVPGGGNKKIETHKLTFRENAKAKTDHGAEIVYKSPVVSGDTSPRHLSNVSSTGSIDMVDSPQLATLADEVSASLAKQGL
row,SMILES,Potency
1,CN(CC(=O)Nc1ccc(C(N)=O)cc1)CC(=O)Nc1ccccc1Cl,inactive
2,CCCCCCC/C=C\CCCCCCCCC(=O)O,"inconclusive: 22.4 µM [inhibitor, partial curve]"
3,CCc1sc(N)nc1-c1ccccc1,"inconclusive: 25.1 µM [inhibitor, single point]"
4,COc1cc(C2CC(=O)Oc3ccc(O)cc32)cc(OC)c1OC (configuration not stated),"inconclusive: 28.2 µM [inhibitor, single point]"
5,O=C(Cc1ccccc1)Nc1ccc(N2CCCC2)cc1,"inconclusive: 15.8 µM [inhibitor, partial curve]"
6,c1ccc2c(-c3cn4ccccc4n3)c[nH]c2c1,"inconclusive: 15.8 µM [inhibitor, partial curve]"
7,CCC(=O)Nc1ccc(Nc2nc(C)c([N+](=O)[O-])c(Nc3ccc(NC(=O)CC)cc3)n2)cc1,active: 28.2 µM
8,Cn1c(=O)c2c(c3ccccc31)OC(=O)CC2c1ccc(C(F)(F)F)cc1 (configuration not stated),"inconclusive: 20 µM [inhibitor, partial curve]"
9,COC(=O)C1=NN(C(=O)c2ccc(Cl)cc2)C(O)(c2ccccc2)C1 (configuration not stated),"inconclusive: 39.8 µM [inhibitor, single point]"
10,COc1ccccc1CN=c1c([N+](=O)[O-])nn(-c2ccc3c(c2)OCCO3)n1O,"inconclusive: 11.2 µM [inhibitor, partial curve]"
11,CCC(=O)Nc1ccc(NC(=O)CSc2nc3cc4c(cc3cc2C)CCC4)cc1,inactive
12,Cc1ccc(-c2csc3nc[nH]c(=S)c23)cc1,inactive
13,Cc1ccc(S(=O)(=O)NC2=C(N3CCN(c4ccccc4F)CC3)C(=O)c3ccccc3C2=O)cc1,active: 15.8 µM
14,CCc1ccc(NC(=O)C(NS(=O)(=O)c2cccs2)C(C)C)cc1 (configuration not stated),inactive
15,CCOc1cc(C(=O)Nc2cc(C)on2)cc(OCC)c1OCC,inactive
16,CCOCCCNC(=O)c1ccc2nc(CCc3ccccc3)oc2c1,"inconclusive: 17.8 µM [inhibitor, single point]"
17,COc1ccc(OC)c(/C=N/NC(=O)c2csc3ccccc23)c1,"inconclusive: 14.1 µM [inhibitor, partial curve]"
18,CCCCNC(=O)CCCCn1c(=S)[nH]c2c([nH]c3ccc(OC)cc32)c1=O,inactive
19,CCn1c(=O)n(-c2ccc(C)c(F)c2)c(=O)c2sc3ccccc3c21,"inconclusive: 25.1 µM [activator, partial curve, poor fit]"
20,O=C(Nc1nnc(C2COc3ccccc3O2)o1)c1ccc(F)cc1 (configuration not stated),"inconclusive: 35.5 µM [inhibitor, single point]"
21,O=C(N/N=C/c1c[nH]c2ccccc12)c1cccc([N+](=O)[O-])c1,"inconclusive: 12.6 µM [inhibitor, partial curve]"
22,CCOC(=O)C(C)Sc1nnc(Cn2c(=O)sc3ccccc32)n1-c1ccccc1 (configuration not stated),inactive
23,Cc1cc(=O)oc2cc(OCC(=O)N3CCOCC3)ccc12,"inconclusive: 31.6 µM [inhibitor, partial curve]"
24,Cc1cc(C)c(/C([O-])=C(/C(=S)Nc2ccc(SC(F)F)cc2)[n+]2ccccc2)cc1C,inactive

row,SMILES,Potency
1,Cc1ccc(NC(=O)NCCN2C(=O)C3C4C=CC(C4)C3C2=O)cc1 (configuration not stated),inactive
2,COc1ccc(C(=O)/C=C2\Sc3ccccc3N2C)cc1,"inconclusive: 1.78 µM [inhibitor, full curve]"
3,O=c1oc2ccccc2c2oc3cc(O)c(O)cc3c12,"inconclusive: 5.62 µM [inhibitor, full curve] and inconclusive: 15.8 µM [inhibitor, partial curve]"
4,Cc1occc1C(=O)Nc1sc2c(c1C(N)=O)CCC(C(C)(C)C)C2 (configuration not stated),"inconclusive: 4.47 µM [inhibitor, partial curve]"
5,O=C(/C=C/c1ccc(Cl)cc1Cl)Nc1cccc(S(=O)(=O)NC2=NCCC2)c1,inactive
6,CC1(c2ccccc2)NC(=O)N(CC(=O)Nc2ccc([N+](=O)[O-])cc2)C1=O (configuration not stated),"inconclusive: 14.1 µM [inhibitor, partial curve]"
7,Cc1ccc2sc(NC(=O)CSc3nc(C)cc(C)c3C#N)nc2c1,"inconclusive: 11.2 µM [inhibitor, partial curve]"
8,O=C1C2CCCN2C(c2ccccc2)N1c1nccs1 (configuration not stated),inactive
9,Cc1cc(=O)n2[nH]c(-c3sccc3-n3c(C)ccc3C)cc2n1,"inconclusive: 39.8 µM [inhibitor, single point]"
10,O=C(COC(=O)c1cc(-c2cccs2)nc2ccccc12)c1ccccc1,"inconclusive: 31.6 µM [inhibitor, partial curve, poor fit]"
11,O=C(Nc1cccc2nsnc12)c1ccc2c(c1)OCO2,"inconclusive: 12.6 µM [inhibitor, partial curve]"
12,Cc1cc2nc(-c3ccc(SCC(=O)N4CCOCC4)nc3)[nH]c2cc1C,"inconclusive: 12.6 µM [inhibitor, partial curve]"
13,CCCCCOc1ccc(N2C(=O)CC(N(O)c3ccccc3)C2=O)cc1 (configuration not stated),"inconclusive: 3.98 µM [inhibitor, partial curve]"
14,N=c1c2c(-c3ccccc3)c(-c3ccccc3)n(Cc3ccco3)c2ncn1CCCO,inactive
15,Cc1ccsc1C(=O)N/N=C/C=C/c1ccccc1[N+](=O)[O-],"inconclusive: 35.5 µM [inhibitor, single point]"
16,O=C(Nc1cc([N+](=O)[O-])ccc1N1CCCC1)c1ccccc1,"inconclusive: 31.6 µM [inhibitor, single point]"
17,Cc1cccc(C)c1OCc1nnc(SCC(=O)NCCc2ccccc2)o1,"inconclusive: 25.1 µM [inhibitor, partial curve]"
18,CC(C)(C)NC(=O)Cn1c(SCC(=O)NC2CCCCC2)nc2ccccc21,inactive
19,Cc1cccc(COCC(Cc2ccccc2)N2CCN(C(=O)c3ccc(C(F)(F)F)cc3)CCC2=O)c1 (configuration not stated),"inconclusive: 22.4 µM [inhibitor, partial curve, poor fit]"
20,Fc1ccc(NCc2cccn2-c2nnc(N3CCOCC3)s2)cc1,inactive
21,CC1CCN(c2ncnc3c2cnn3-c2ccc(F)cc2)CC1,"inconclusive: 17.8 µM [inhibitor, partial curve, poor fit]"
22,COc1ccc(CCCc2nnc(SCC(=O)N/N=C\c3ccc(O)c(OC)c3)o2)cc1C,"inconclusive: 7.94 µM [inhibitor, partial curve]"
23,COc1cc(/C=C(/C#N)C(=O)Nc2ccc(C)cc2)ccc1Oc1nc(Cl)ncc1F,"inconclusive: 11.2 µM [inhibitor, partial curve]"
24,O=C(NCCc1c[nH]c2ccccc12)C(=O)NCC1CCCO1 (configuration not stated),inactive

row,SMILES,Potency
1,Cc1ccc(O)c(N=Cc2ccc(C)s2)c1,active: 22.4 µM
2,Cc1cccc(NC(=S)NCc2cccs2)c1,inactive
3,Cn1/c(=N/NC(=O)c2cccc(OC(F)F)c2)sc2ccccc21,"inconclusive: 25.1 µM [inhibitor, partial curve]"
4,Cc1nn(-c2ccccc2C(=O)O)c(=O)c2ccccc12,inactive
5,CCCNC(=O)Cn1c(=O)n(C)c2ccccc21,inactive
6,COc1ccc(C(=O)/C=C/c2ccccc2)c(O)c1,"inconclusive: 25.1 µM [inhibitor, partial curve]"
7,COc1cccc(CN2CCc3nc(Nc4ccc5c(c4)OCCO5)ncc3C2)c1,"inconclusive: 0.891 µM [inhibitor, partial curve, poor fit]"
8,Cc1nc(Cl)nc(N(C)c2ccccc2)c1[N+](=O)[O-],"inconclusive: 20 µM [inhibitor, partial curve, poor fit]"
9,CCC(C)N=C1SCC(C)(/C=N/O)S1 (configuration not stated),"inconclusive: 25.1 µM [inhibitor, single point]"
10,c1ccc(C2=Nc3cccc4cccc(c34)N2)cc1,"inconclusive: 5.01 µM [inhibitor, partial curve]"
11,Cc1[nH]c(N=Nc2ccccc2)nc1N=Nc1ccccc1,active: 3.55 µM
12,Cc1ccc(CCc2nnc(SCC(=O)Nc3cc(Cl)ccc3Cl)n2-c2ccccc2)o1,inactive
13,COc1ccc(N2CCN(C(CNC(=O)OCc3ccccc3)c3ccco3)CC2)cc1 (configuration not stated),"inconclusive: 25.1 µM [inhibitor, partial curve]"
14,CCOc1ccc2nc(SC3CC(=O)N(c4ccccc4)C3=O)sc2c1 (configuration not stated),"inconclusive: 7.08 µM [inhibitor, full curve, poor fit]"
15,CCOCCCNC(=O)Cc1c(C(=O)O)[nH]c2ccc(Cl)cc12,inactive
16,CC1=Nc2cccc3cccc(c23)N1C,inactive
17,Oc1ccc2ccccc2c1C=Nc1ccc(N2CCOCC2)cc1,active: 5.01 µM
18,CN(C)c1ccc(/C=N\NC(=O)c2cccc3cc[nH]c23)cc1,active: 10 µM
19,O=C1NC(=Nc2cccc(O)c2)S/C1=C\c1cccnc1,"inconclusive: 2.82 µM [inhibitor, full curve, poor fit]"
20,CCc1ccc(OC(C)c2nnc(SCC(=O)Nc3ncccc3C)n2C)cc1 (configuration not stated),inactive
21,CCOc1ccccc1NC(=O)Cn1nc2c3cc(F)ccc3n(Cc3cccc(C)c3)cc-2c1=O,"inconclusive: 14.1 µM [inhibitor, partial curve]"
22,CCN(CC)S(=O)(=O)c1cc(NC(=O)Cn2ncc(Cl)c(Cl)c2=O)ccc1C,"inconclusive: 8.91 µM [inhibitor, partial curve, poor fit]"
23,C=C(C)C1(O)OC(=O)C=C1OC (configuration not stated),"inconclusive: 10 µM [inhibitor, partial curve, poor fit]"
24,CCCCCC(=O)c1c(C)[nH]c(C(=O)OCC)c1C,"inconclusive: 25.1 µM [inhibitor, partial curve, poor fit]"
